Measurements as given in the RNAGym collection of RNA variant scans (doi:10.7554/elife.90254).
Read counts are not given, so values of variants with three or more changes are uncertain.

B1: LINE1-mini (parent)
chain: GGCAGAGCUCAACACAGCGUGGCAAAGUGGCUGUGGCUAGACUGCC

Variants of: B1
Assay: self-cleavage, relative activity (ratio to wild type); higher = more cleavage; in vitro, sequencing; the parent is a self-cleaving ribozyme

Variant	self-cleavage
A11U C15U G17U	0.02
A11G G21A U28G	0.01
A11U C15G G19A A25G G27A G29U G30C	0
A11U G30A C45U	0.38
A11U G33A A41U	0.05
A11U G33A A41C	0.01
A12C A14G C18A C31G C42A	0.02
A11G G33U C46U	0.03
A11U G22A G27C C37U U38G	0
A12C A14G C37U	0
A11U C23A U32G G33C G36C U38G	0
A11U U20G A24C	0.02
A11U A16U G29U C42A	0.01
A11U G22A U43A	0
A12C A16U C18U G21U U34G C42U	0.01
A11U G17C A24U	0.1
A11U C31U G35A	0.02
A11G G21A C31A U32C	0.01
A11U G30C A39G	0.18
A12C A16C A25G	0.03
A11G U32C C37A	0.01
A11G U32C C37U	0
A11U G19C G35U	0
A12C C13A G30U U32C	0.05

Variant	self-cleavage
A11G G22U A26C G40C	0.03
A11U G17U A26U A39C G40C	0.01
A11U G27A C37A	0.04
A11G G22A A41G	0.03
A11U C18A C31A C45G	0.01
A11U G22U A24C G33A G44A	0.02
A11G G19A U20A G22U	0.01
A12C A25U U28G G30A G35A C37U A41U	0
A11U G21U G29A G33U	0.04
A12C C13A A14G	0
A11U U20C G29U G36A U38C C45U	0.01
A11G G21U G35U	0.01
A11U C18U U20C	0.21
A11U U20C G22A A26U A39U	0.02
A12C A16G C23G G40U	0
A11U U28A G35A	0.01
A12C C13A G17C G44A	0.04
A11U G21U A39G C45G	0.01
A11U G17A G35A A41C C42A U43G	0.02
A11U A12C C37G	0.01
A11U A12U G33U	0.03
A11U C18U G22A	0.26
A11U C13G A24U	0.01
A11U G35C A39C	0.03

Variant	self-cleavage
A11U A12C A14C C15A G30U	0.02
A11U G22C G40C	0.01
A11U G17C G22U A26U	0.05
A11U A25G A39C	0
A11U A14U C23U	0.03
A11U G40U C42A G44C	0.03
A11G U20G G27U G29U G33U	0.01
A11U C31G G35U	0.02
A11U G21U G22A G27C C31A	0
A11U C15G C23U C46G	0.01
A11U A12G G33A C46A	0.02
A11G G21C G22A	0.02
A11U A12C G17U G40C	0.01
A12C A24C C42U	0.02
A11U C15U A25C A39U	0.01
A11U G19U G33C	0.02
A11U G33U A39C U43C	0.03
A11U A26C A39G	0.03
A11G G22A U32A C37U G40C U43C	0.01
A11U C31U U38G	0
A11U A12C C15A	0.03
A11G G22U A26C	0.03
A11U C18A G29A G33U A39C A41U	0
A11U A24G G44U C45A	0.03

Variant	self-cleavage
A11G G30U G40C	0
A12C A14C A25U G27A G29C U32C G35U	0.02
A11U C23G A39C	0.05
A11U C15U A25G	0.05
A11U C13G C18A C23A G29C	0.01
A12C A14C A25G C31U	0
A11U U38C G40A C42G	0.01
A11U C15A G36C A39C	0.02
A11U C13U U20A A41C U43C	0.01
A11G U28G C31A	0.13
A11U U28G U43A	0.02
A11U U32G G35U	0.06
A11G G19C U28C U32G	0.02
A12C A24G G35U G40C	0.01
A11U A24G U28G	0.09
A11U G17A A41G	0.01
A11U G40A C45G	0.04
A11U G21A U34G	0.01
A11U C13A C18U	0.03
A11U C23U G33C	0.01
A11U G17C C42U	0.03
A11U G30C U32C	0.05
A11U C23G U28A	0.15
A11U C37U A39C	0

Variant	self-cleavage
A11G G30U C45U	0.02
A11U A12G G17C	0
A11G G36U A39U U43A	0
A11G G19A G21C C42U	0.01
A11U A14G U20G G29U G30U U32A U43G	0
A11U C15A A41G G44C	0.01
A11U C15G C42U	0
A11U A12G A16C U20A	0.04
A12C A26U G29A	0.02
A11U C15A C18U A24U	0.02
A11U C15G C31G	0.01
A11U U34C C37G C46U	0.01
A11U G17A U28A C37U U43A	0
A11U A12G C13U	0.01
A11G G22C A25U U43C	0
A11U G35U A41G	0
A11U G17A G40A U43C C45A	0.02
A11U G21A A24U U32G	0.04
A11U A12C G19A C23U A41C C45A	0
A11U C13U G30A G33U G40A	0
A11U C13G G19U G27A C37U	0.02
A11G G22U C23A G27A	0
A11G G29A G33C C45A	0
A12C A26C G44A	0.02

Variant	self-cleavage
A11U G27C G30A U38A	0.03
A11U A14U C18G G40U	0.02
A11U C18A U34G	0.02
A12C A14C G19U	0.05
A11U C23U G36U C37A	0
A12C A16U U20A C46A	0.01
A11G G22U C31G U43A	0.01
A11U U28A C42U	0.05
A11U G35A C37A U43C	0.02
A11U G22A A24C U34C	0.03
A11U G21U G44U C46A	0
A11U C18A G29U	0.2
A11U G27U A41U U43A	0.02
A11U A14C G19A A25C	0.01
A11U C18U A24C G44A	0.02
A11U A16U C45U	0.01
A11U U20G A41C C42G	0
A11U G21A G30A G44U	0.05
A11U A12U A25U C31A	0.04
A11U A16U A26C G40U	0
A11U C13A G40U	0.01
A11G G19A C37G	0.01
A11U G19A A25C	0.13
A11G G21C U43C	0.01

Variant	self-cleavage
A11U A12C C45G	0
A11G U28C G44U	0.02
A11G G27C U38G C42A G44C C46A	0
A11U G19A U32G	0.04
A11U G22U G44A	0.03
A11U G22A A25C A26G C46A	0.06
A11U C37A C42A C46A	0.01
A11U U34C C46A	0.03
A11U G22C G33C	0.02
A11U C13U U20A	0.01
A12C A14C G29C	0
A11U U34A G36A U43C	0
A12C A24U A26C G29U	0.02
A11U A14C G21U	0.02
A11G G22C U32C	0.01
A11U U20G G21C G29A A41C	0
A11U C18G G21C A41C	0.01
A11G U32A G36U	0.01
A11U C23G U38C	0.19
A11U G19C G30C	0.07
A11U A14G G29C	0.08
A11U A26U A41C	0.02
A11G G35U G36U	0.02
